Source: PubChem BioAssay AID488969 (Vanderbilt High Throughput Screening Facility, 2010)
In all, about 110,000 compounds were measured (“z-score”: median about -0.1, highest 2% from about 2 on). The list shows a part of the results.

molecular target: Metabotropic glutamate receptor 8 (Rattus norvegicus) (UniProt P70579); assay: mGluR8 Gi/Go-coupled signaling modulation – cell-based, rat, thallium flux, HTS, primary screen (AID 488969); conditions: HEK293 rat mGluR8, GIRK (G protein-gated inwardly rectifying potassium channel) thallium flux, FluoZin2; at 10 µM; stronger effect = higher value; submaximal glutamate (EC20) added with thallium
Chain of UniProt P70579 (P70579 whole entry, looked up): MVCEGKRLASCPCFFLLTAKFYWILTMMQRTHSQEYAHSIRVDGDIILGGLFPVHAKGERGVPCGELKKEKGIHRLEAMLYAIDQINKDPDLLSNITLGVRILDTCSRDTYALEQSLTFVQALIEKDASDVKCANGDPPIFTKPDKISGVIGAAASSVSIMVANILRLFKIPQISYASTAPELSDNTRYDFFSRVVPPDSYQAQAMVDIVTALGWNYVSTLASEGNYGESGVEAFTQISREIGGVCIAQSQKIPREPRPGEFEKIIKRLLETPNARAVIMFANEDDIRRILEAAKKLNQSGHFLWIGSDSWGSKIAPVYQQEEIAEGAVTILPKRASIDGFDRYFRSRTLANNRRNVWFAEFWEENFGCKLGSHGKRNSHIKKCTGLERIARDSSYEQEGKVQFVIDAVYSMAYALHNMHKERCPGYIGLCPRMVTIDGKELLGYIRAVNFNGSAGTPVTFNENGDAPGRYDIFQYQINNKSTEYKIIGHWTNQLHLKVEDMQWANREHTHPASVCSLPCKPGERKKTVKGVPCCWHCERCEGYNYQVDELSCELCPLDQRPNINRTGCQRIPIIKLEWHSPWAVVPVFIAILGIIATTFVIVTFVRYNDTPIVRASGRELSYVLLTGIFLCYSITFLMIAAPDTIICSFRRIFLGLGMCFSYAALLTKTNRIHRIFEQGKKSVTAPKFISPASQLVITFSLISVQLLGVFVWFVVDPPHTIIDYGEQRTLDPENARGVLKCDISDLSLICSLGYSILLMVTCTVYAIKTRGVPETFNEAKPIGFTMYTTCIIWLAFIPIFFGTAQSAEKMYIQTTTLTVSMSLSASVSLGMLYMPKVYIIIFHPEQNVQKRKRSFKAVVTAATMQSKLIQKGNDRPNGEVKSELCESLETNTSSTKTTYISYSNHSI

Compound | z-score
O=C(Oc1ccc(OC(=O)N2CCCCC2)cc1)c1ccccc1 | 0.0923
CCOc1ccc2nc(SCC(=O)N(C)C)[nH]c2c1 | -0.0593
COc1ccc(OC)c(C(=O)COC(=O)c2cc(C)oc2C)c1 | -0.457
Cc1nn2c(SCC(=O)c3cccs3)cc(C(C)(C)C)nc2c1-c1ccccc1 | -0.127
CC(C)CN(CCNC(=O)CC1Oc2ccccc2NC1=O)CC(C)C (centres undefined) | -0.31
O=C(C(c1ccccc1)c1ccccc1)N1CCOCC1 | 0.121
O=C(c1cc2ccccc2oc1=O)N(Cc1ccc2c(c1)OCO2)Cc1ccco1 | -0.216
CSc1nnc(-c2cc3c(-c4ccccc4)nn(C)c3s2)n1C | -0.258
COc1ccc(NC(=O)C2CCCN(S(=O)(=O)c3cccc4cccnc34)C2)c(OC)c1 (centres undefined) | -0.00108
Cc1n[nH]c(C)c1CCc1nc2c3ccccc3nc(SCC(N)=O)n2n1 | -0.148
COc1ccc(-n2c(=O)[nH]cc(C(=O)N3CCc4ccccc43)c2=O)cc1 | 1.3
Cc1nn(Cc2ccc(F)cc2)c(C)c1NC(=O)c1cccnc1Cl | 0.0276
CC(Sc1ccccn1)C(=O)Nc1ccccc1 (centres undefined) | -0.408
O=C(COc1ccc2ccccc2c1)Nc1ccc2c3c(cccc13)CC2 | 0.0158
Brc1ccc(-c2nnc(-c3ccccc3)o2)o1 | 0.557
CCOC(=O)Cc1c(C)nc2cc(-c3ccc(C(C)(C)C)cc3)[nH]n2c1=O | -0.186
COCC(=O)Nc1cccc(Br)c1 | 0.166
Cc1cccc(C)c1NC(=O)Cn1c(=O)n(CCC(=O)NCc2ccco2)c(=O)c2sccc21 | -0.176
O=C(CSc1nc2ccccc2[nH]1)Nc1nc(-c2cccc(Br)c2)cs1 | -0.171
O=C(O)CN1CCN(Cc2ccccc2)C1=O | -0.122
O=C(NCC(c1cccs1)N1CCOCC1)c1ccccc1NS(=O)(=O)c1ccc(Cl)c([N+](=O)[O-])c1 (centres undefined) | -0.572
CC1=C(C(=O)OC2CCCCCCC2)C(c2cccc(O)c2)NC(=O)N1 (centres undefined) | 0.191
Cc1ccc(/C=C/C(=O)N2CCN(c3cccc(C(F)(F)F)c3)CC2)cc1 | -0.0624
CCN1CCN(Cc2c(O)ccc3c2O/C(=C\C=C\c2ccccc2OC)C3=O)CC1 | 1.76
COc1ccc(OC)c(S(=O)(=O)Nc2ccc(OCC(=O)O)cc2)c1 | -0.172
O=C(/C=C1\NC2(CCCC2)Cc2ccccc21)C(=O)N/N=C/c1ccc(O)c(O)c1 | -0.657
O=c1c2c(nc(NCCO)n1CC1CCCCC1)-c1ccccc1CC21CCCC1 | 0.132
O=C(NCCc1ccccc1)c1nc2c(nnn2Cc2ccccc2Cl)c(=O)[nH]1 | -2.3
CCOC(=O)Cc1csc(NC(=O)CSc2nnc(-c3ccncc3)n2Cc2ccco2)n1 | -0.608
